Reference: PubChem BioAssay AID1347073 (National Center for Advancing Translational Sciences (NCATS), 2019)
About 200 (0.44%) of roughly 45,000 compounds were called active. The inconclusive results got no clear call from the source; some entries with a clear call stand among them for comparison. The call rests on the fitted dose curve; in most records, active means well fitted activation curve with a large enough effect; inconclusive means small, poorly fitted or top-dose-only effect; inactive means no such curve, though single readings can be large or run the other way. Potencies beside an inconclusive call are fits to weak or partial responses and may not hold up.

Assay: qHTS of TDP-43 Inhibitors: NCGC Sytravon Library Screen; further: nearly all actives have a fitted effect of over 55% in size; on growth rescue (activation): 0% is about no effect
Details: yeast TDP-43 toxicity rescue, BacTiter-Glo growth, 24 h; growth rescue (activation): at 46.1 µM (top of the series)
In short: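 TDP-43-expressing yeast, pregrown in raffinose, seeded at OD600 0.02 in galactose medium with compound for 24 hr at 30 deg C. Growth read by BacTiter-Glo luminescence, so rescue of toxicity appears as activation.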
Potency means the concentration at half of the fitted maximal effect; tags describe the fitted curve by direction and shape.

Structure (SMILES) | Potency | growth rescue (activation)
O=C(OC(C(=O)NCc1ccccc1)c1ccccc1F)c1ccco1 (centres undefined) | inactive | 
CC(C)c1ccc(CN2CCC2(C)C(=O)Nc2cccc(Oc3ccccc3)c2)cc1 (centres undefined) |  | inconclusive: 62.7% [activator]
Cc1[nH]n2c(=O)cc(C(C)(C)C)nc2c1-c1ccccc1 | inconclusive: 35.5 µM [activator, partial curve, poor fit] | 
Cc1ccc(-c2noc(-c3nnn(CC(=O)Nc4cc(C)cc(C)c4)c3N)n2)cc1 | inactive | 
CC(C)Cn1[nH]c2c3c(ccc2c1=O)C(=O)c1ccccc1C3=O | inconclusive: 3.98 µM [activator, full curve, poor fit] | 
CC(=O)c1cccc(NC(=O)CCCOc2ccc(C)cc2)c1 | inconclusive: 11.2 µM [activator, partial curve, poor fit] | 
CC(C)N1C(=O)/C(=C\c2nc3ccccc3c(=O)[nH]2)c2ccccc21 | inconclusive: 31.6 µM [activator, single point] | 
CC(=O)OC[C@H]1COc2ccc3ccccc3c2[C@H]1N(C)C(C)=O | inactive | 
Cc1ccc(C(=O)Nc2c(C(=O)NCc3ccc(Cl)cc3)sc3nc(C)cc(C)c23)cc1 | inactive | 
Cc1ccccc1NC(=O)c1sc2nc3c(cc2c1N)CCCC3 | inactive | 
N#Cc1cccc(NC(=O)c2cncn2-c2ccccc2)c1 | inactive | 
CCOc1cc(/C=N\Nc2nc(-c3ccc(C)cc3)c(NC(C)=O)s2)ccc1O | inconclusive: 12.6 µM [activator, single point] | 
O=C(Nc1cccc(Cl)c1)c1ccc(F)c(S(=O)(=O)NCc2cccs2)c1 | inconclusive: 12.6 µM [activator, partial curve, poor fit] | 
CCc1nnc(SC(CC)C(=O)Nc2cccc(OC)c2)c2cc3oc(C)cc3n12 (centres undefined) | inactive | 
NNC(=O)C(=O)/C=C1\NC2(CCCC2)Cc2ccccc21 | inconclusive: 7.94 µM [activator, partial curve, poor fit] | 
Cc1ccc(F)cc1C(=O)N1CCCC(c2cc(C(=O)Nc3ccccc3)no2)C1 (centres undefined) |  | inconclusive: 42.2% [activator]
O=S(=O)(Nc1ccc(Cl)cn1)c1cccs1 | inconclusive: 7.08 µM [activator, partial curve, poor fit] | 
O=C(COc1ccc(Br)cc1)N1CCc2ccccc2C1 | inconclusive: 14.1 µM [activator, partial curve, poor fit] | 
S=c1[nH]nc(-c2ccco2)n1/N=C/c1ccc(Cl)cc1 | inconclusive: 20 µM [activator, single point] | 
CCNC(=S)N/N=C/c1cn(Cc2ccc(F)cc2)c2ccccc12 | inconclusive: 0.316 µM [activator, full curve, poor fit] | 
COc1ccc(-c2csc(C(O)c3ccc(F)c(F)c3)n2)cc1 (centres undefined) |  | inconclusive: 115% [activator]
O=C(COc1cccc(Cl)c1)NNC(=S)Nc1ccccc1 | inconclusive: 15.8 µM [activator, single point] | 

Structure (SMILES) | Potency | growth rescue (activation)
CCn1c(C(=O)NCCCc2ccccc2)cc2sccc21 | inconclusive: 17.8 µM [activator, single point] | 
Cc1ccc(CC(=O)NCC(O)c2ccccc2)cc1 (centres undefined) |  | inconclusive: -28.8% [activator]
O=C(c1cc2c(s1)CCCC2)N1CCN(c2ccccc2)CC1 | inconclusive: 12.6 µM [activator, partial curve, poor fit] | 
COc1cccc(CNC(=O)C2CCC(CNc3c(N4CCC(C)CC4)c(=O)c3=O)CC2)c1 (centres undefined) | inconclusive: 17.8 µM [activator, single point] | 
Cc1nc(-c2ccc(-n3nncc3-c3ccco3)cc2)cs1 | inconclusive: 12.6 µM [activator, single point] | 
CCOc1ccc(CNC(=O)c2ccc(Sc3ccc(C)cc3)c(NC(C)=O)c2)cc1OC | inconclusive: 12.6 µM [activator, single point] | 
Cc1ccc(C(=O)c2ccccc2C(=O)OCC(=O)NC(=O)NC(C)(C)C)cc1 | inconclusive: 20 µM [activator, partial curve, poor fit] | 
Cc1ccccc1C(=O)NCCCNC(=O)c1ccccn1 | inactive | 
CN(Cc1cccs1)C(=O)CCCc1c[nH]c2ccccc12 | inconclusive: 14.1 µM [activator, single point] | 
COCCNc1nc2cc(-c3ccccc3C)sc2c(=O)n1C |  | inconclusive: 41.8% [activator]
CCc1cccc(NC(=O)C2CCCN2S(=O)(=O)c2ccccc2C(F)(F)F)c1 (centres undefined) | inconclusive: 35.5 µM [activator, partial curve, poor fit] | 
Cc1ccc2nc(/N=C(\N)NC(=O)N3c4ccccc4Sc4ccccc43)nc(C)c2c1 | inconclusive: 10 µM [activator, partial curve, poor fit] | 
O=C(CCCCCn1c(=O)c2sccc2n(CC(=O)Nc2ccccc2F)c1=O)NCc1ccc2c(c1)OCO2 | inactive | 
Cc1cc(=O)c(C(=O)O)cn1-c1ccc(C(C)C)cc1 | inconclusive: 22.4 µM [activator, single point] | 
O=C(Cc1cccc2ccccc12)NCCC1=CCCCC1 | inconclusive: 11.2 µM [activator, partial curve, poor fit] | 
Cc1ccc(CN(C(=O)COc2ccc(F)cc2)C2CCS(=O)(=O)C2)o1 (centres undefined) | inactive | 
CN(N=Nc1cccc([N+](=O)[O-])c1)c1ccccc1 | inactive | 
Cc1nc2ccc(NC(=O)COc3ccccc3F)cc2s1 | inconclusive: 3.16 µM [activator, partial curve, poor fit] | 
COc1cccc(C(NC(C)=O)c2nc(-c3cccc(F)c3)cs2)c1 (centres undefined) | inactive | 
Cc1cc([N+](=O)[O-])nn1CCCC(=O)Nc1ccc(Cl)cc1Cl | inconclusive: 17.8 µM [activator, partial curve, poor fit] | 
CCCC(=O)N1CCN(c2nc(CC(C)C)c3c(c2C#N)CCC3)CC1 | inconclusive: 11.2 µM [activator, partial curve, poor fit] | 
COc1ccc(NCc2ccc([N+](=O)[O-])s2)cc1 | inconclusive: 20 µM [activator, single point] | 
